# Experimental data from PMC4336329 (PLoS ONE, 2015).
# The campaign covered roughly 310,000 compounds. About 14,000 (4.5%) showed an effect of 50% or more. Effects have a minus sign here. The list shows a part of the results.
# Target: human ether-à-go-go-related gene (hERG) potassium channel (human, UniProt Q12809)
# Test: primary screen, population patch clamp on CHO cells stably expressing hERG
# 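Also: peak tail current of the secondary pulse compared with the same well before compound.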
# human ether-à-go-go-related gene (hERG) potassium channel, sequence (Q12809 whole entry, looked up): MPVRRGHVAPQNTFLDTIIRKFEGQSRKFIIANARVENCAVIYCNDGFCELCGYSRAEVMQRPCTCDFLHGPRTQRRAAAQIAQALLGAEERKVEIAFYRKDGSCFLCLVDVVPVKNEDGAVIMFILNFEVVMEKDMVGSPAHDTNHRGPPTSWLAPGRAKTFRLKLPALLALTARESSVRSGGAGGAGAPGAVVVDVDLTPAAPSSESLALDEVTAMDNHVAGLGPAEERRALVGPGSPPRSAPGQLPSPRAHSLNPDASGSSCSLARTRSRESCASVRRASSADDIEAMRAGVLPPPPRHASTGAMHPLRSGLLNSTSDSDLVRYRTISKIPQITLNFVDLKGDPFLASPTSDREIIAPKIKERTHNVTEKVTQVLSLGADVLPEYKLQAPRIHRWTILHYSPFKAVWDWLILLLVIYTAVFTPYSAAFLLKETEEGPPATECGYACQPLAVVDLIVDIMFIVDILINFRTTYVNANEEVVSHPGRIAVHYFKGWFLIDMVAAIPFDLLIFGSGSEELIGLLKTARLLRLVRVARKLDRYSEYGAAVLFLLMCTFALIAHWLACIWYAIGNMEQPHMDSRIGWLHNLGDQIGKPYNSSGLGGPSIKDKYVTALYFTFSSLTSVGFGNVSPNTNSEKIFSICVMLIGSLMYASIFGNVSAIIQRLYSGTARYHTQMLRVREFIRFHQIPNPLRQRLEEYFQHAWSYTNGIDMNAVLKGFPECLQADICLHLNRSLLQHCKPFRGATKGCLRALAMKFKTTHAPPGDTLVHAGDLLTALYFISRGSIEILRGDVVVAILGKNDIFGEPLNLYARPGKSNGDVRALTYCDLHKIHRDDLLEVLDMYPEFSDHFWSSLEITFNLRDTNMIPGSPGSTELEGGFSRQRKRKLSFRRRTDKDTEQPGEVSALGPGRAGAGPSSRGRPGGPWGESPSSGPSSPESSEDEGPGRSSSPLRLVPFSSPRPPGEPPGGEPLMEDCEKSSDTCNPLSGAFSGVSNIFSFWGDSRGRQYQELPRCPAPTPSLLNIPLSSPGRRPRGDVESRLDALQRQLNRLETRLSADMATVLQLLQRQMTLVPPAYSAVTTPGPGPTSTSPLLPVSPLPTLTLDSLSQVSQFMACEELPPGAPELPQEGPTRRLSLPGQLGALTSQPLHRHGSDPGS
row,Compound,"hERG current change (%, negative = inhibition) at 10uM"
1,CS(=O)(=O)c1ccc(NC(=O)CCCc2nc3ccccc3c(=O)[nH]2)cc1,37.7%
2,Cc1nc(N2CCOCC2)nc(OCCN2CCOCC2)c1[N+](=O)[O-],-0.852%
3,O=C(c1ccccc1Br)N1CCCC(c2nc(-c3cccs3)no2)C1 (stereo not drawn),-3.22%
4,COC(=O)Nc1ccc(S(=O)(=O)NCCCCCC(=O)O)cc1,-1.56%
5,O=C(NCc1ccco1)[C@@H]1CCCN1C(=O)c1cccs1,-16.3%
6,CC(C)C(=O)Nc1ccccc1N1CCN(C(=O)c2ccccc2)CC1,-14.2%
7,O=C(C1CCCO1)N1CCN(c2ccccn2)CC1 (stereo not drawn),12.1%
8,CN(C)Cc1c(O)ccc2occ(C(=O)c3ccccc3)c12,-52.8%
9,CC1(C)Cc2cccc(OCC(=O)N3CCN(c4ccccc4Cl)CC3)c2O1,-64.3%
10,O=C(CCCN1C(=O)c2ccccc2C1=O)N1CCCCC1,8.56%
11,CCC(=O)N1CCc2cc(S(=O)(=O)CCC(=O)Nc3ccc(CC)cc3)ccc21,14.9%
12,CCCc1nn2c(=O)cc(CSCC(=O)Nc3nnc(C(C)C)s3)nc2s1,8.15%
13,CCOC(=O)C1CCN(C2=NC(=O)/C(=C/c3ccc(Cl)cc3)S2)CC1,-64.8%
14,COc1ccc(/C=N/NC(=O)CSc2n[nH]c(=O)[nH]c2=O)cc1,11.5%
15,CS(=O)(=O)N(CC(=O)Nc1ccc(Br)cc1)C1CCCCC1,-10.1%
16,COc1ccccc1C(=O)C1CCCN(C(=O)c2ccco2)C1 (stereo not drawn),15.8%
17,CSCCC(NC(=O)c1ccc([N+](=O)[O-])cc1Cl)C(=O)OCC(=O)NC(=O)CN1CCCC1=O (stereo not drawn),1.94%
18,COc1cc(N)c(Cl)cc1C(=O)OC(C)C(=O)Nc1cccc(S(=O)(=O)N2CCOCC2)c1 (stereo not drawn),-0.241%
19,CNC(=O)c1cc(S(=O)(=O)N(C)C)ccc1Cl,5.59%

row,Compound,"hERG current change (%, negative = inhibition) at 10uM"
1,COc1cccc(N2CC(NC(=O)c3ccc4ccccc4c3)CC2=O)c1 (stereo not drawn),4.39%
2,CCN(CC(=O)NCc1cccs1)C(=O)C1CC(=O)N(c2ccc(OC)cc2OC)C1 (stereo not drawn),-2.35%
3,Clc1ccc(Cl)c(-c2nc(-c3ccncc3)no2)c1,26.5%
4,COCCCn1c(SCc2nnc(-c3ccccc3)o2)nc2sc3c(c2c1=O)CCC3,-31%
5,Cc1nn(C2CCCCC2)c(N)c1-c1ccccc1,-3.53%
6,Cc1ccc2nc(SCCC(=O)O)cc(C)c2c1,4.9%
7,O=C(O)CCN1C(=O)/C(=C\c2cccc(OCc3ccccc3)c2)SC1=S,10.6%
8,Cc1cc(Cl)cc(C)c1OCCn1ccnc1.Cl,-13.4%
9,O=C1CCCN1CCCNC(=S)Nc1ccccc1,-5.9%
10,O=C1NC(=O)C(c2cn(-c3ccccc3)nc2-c2ccc(F)cc2)N1 (stereo not drawn),1.82%
11,S=C1SCN(Cc2cccnc2)CN1Cc1ccccc1,-54.7%
12,CCC(C(=O)OCC(=O)NC(=O)c1ccccc1)c1ccccc1 (stereo not drawn),11.7%
13,Cc1oc2c(c1C(=O)NC(Cc1c[nH]c3ccccc13)C(=O)O)CCCC2 (stereo not drawn),6.5%
14,O=C(CN1C(=O)c2cccc3cccc1c23)N1CCc2ccccc2C1,-3.96%
15,COC(=O)c1cc(S(=O)(=O)Nc2ccsc2C(=O)OC)oc1C,4.86%
16,CCOc1ccccc1NC(=O)C1CCN(S(=O)(=O)c2cccc3cccnc23)CC1,-15.3%
17,CCCCc1c(O)nc(SCC(=O)c2ccccc2)n(-c2ccccc2C)c1=O,19.8%
18,CC(=O)Nc1ccc(N=Nc2ccccc2)cc1,8.44%
19,CCCn1nnnc1-c1ccc(Cl)cc1,14.4%

row,Compound,"hERG current change (%, negative = inhibition) at 10uM"
1,Cc1cccc(C)c1NC(=O)CCCSc1nnc(-c2ccc(F)cc2)n1-c1ccccc1,-45.3%
2,Cc1ccc(N(C)S(=O)(=O)c2ccc3c(c2)CC(C)N3C(=O)C2CC2)cc1 (stereo not drawn),13.8%
3,CCC(c1nnnn1Cc1ccco1)N(CCc1ccccc1)Cc1cc2ccc(OC)cc2[nH]c1=O (stereo not drawn),-24.8%
4,COc1ccc2cc(C(C)c3nc4ccccc4c(=O)n3N)ccc2c1 (stereo not drawn),-4.49%
5,COc1ccc(C(O)P(=O)(OCC(C)C)c2ccc(N(C)C)cc2)c(OC)c1 (stereo not drawn),-3.56%
6,CCc1ccc2[nH]c(=O)c(C(c3nnnn3CCOC)N3CCN(c4ccccc4)CC3)cc2c1 (stereo not drawn),-11.6%
7,O=C(CCNS(=O)(=O)c1ccccc1Cl)N1CCN(c2ccccn2)CC1,-27.9%
8,CC(Oc1ccc2ccccc2c1)C(=O)N/N=C/c1cccnc1 (stereo not drawn),-0.134%
9,Fc1ccccc1-c1nc2ncccc2o1,-1.44%
10,COc1ccc(NC(=O)c2cc(C)nn2-c2ccccc2)cc1,11%
11,O=C(COC(=O)/C=C/c1ccco1)NCc1ccccc1,28.1%
12,COc1cc(OC)cc(C(=O)Nc2c(F)cccc2F)c1,4.42%
13,Cn1nnnc1SCC(=O)Nc1ccccc1[N+](=O)[O-],-1.11%
14,COc1ccc(NC(=O)CN(C)C(=O)c2cc(CN3C(=O)c4ccccc4C3=O)ccc2OC)cc1,-5%
15,CCCCC(=O)Nc1ccc(Br)cn1,14%
16,CCCOc1ccc(N2C(=O)CC(N(Cc3ccc(S(N)(=O)=O)cc3)C(=O)CC)C2=O)cc1 (stereo not drawn),-2.71%
17,Cc1[nH]c2ccccc2c1C(C[N+](=O)[O-])c1ccco1 (stereo not drawn),-2%
18,O=C(NCCCO)C(=O)Nc1cc2c3c(c1)CCC(=O)N3CCC2,22.6%
19,C=CCN1CCN(C(=O)c2cc3c(s2)CCC(CC)C3)CC1 (stereo not drawn),-57.3%
